Laboratory results published in the supplement of paper PMC11417369.
Some of the results follow.

System: PfHDP1 homeodomain (GST-tagged)
Assay: gcPBM binding intensity (ln(normalized median fluorescence intensity)); higher = stronger DNA binding
Method in brief: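 GST-fused DNA-binding domains of P. falciparum, expressed in E. coli, were applied at about 25 μg on average for 1 h to an Agilent 4 × 180k array of primer-extended double-stranded 36-bp intergenic genomic probes and negative controls. Binding intensity is the highest Masliner-normalised natural-log median intensity across replicate spots of either probe orientation, measured with Alexa488 anti-GST antibody and a 488 nm scan.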

Row | Sequence | gcPBM binding intensity (ln)
1 | TACATGATATATCACACACACATATAAATATATATA [CACACA_site2831] | 7.35
2 | TTCACAAAATATTATTGTACATTAAAATATTTATAT [XGTACX_site2535] | 6.25
3 | TATAAAACGGATGAACAACAAATCATATGGCACAAA [TGCATGCA_negctrl_site608] | 7.15
4 | GAAAATTTCTTATTTTGTACACACAATAAATATTCA [XGTACX_site3267] | 6.31
5 | TTGGGGTATCTTCCTATGCACACTTGTTATGTACTA [CACACA_site831] | 9.24
6 | ATTATAGACACGCGCACACACAACAAAAAAAAAAAA [CACACA_site9180] | 6.96
7 | ATACTTTTAAATTGATGTACTTTATTTATAAGGTGA [XGTACX_site6746] | 6.1
8 | TTGATTACTAGAAATGCACACACTGATAAAATAAGG [CACACA_site4134] | 9.34
9 | TTGCTCACAAGAAGCACACAAAAAAAGAAAAAAAAA [CACACA_site4047] | 6.2
10 | ATATCCTTAAAAGATACACACATATGAATATTTTGT [CACACA_site3847] | 6.39
11 | TTTATACTTGTAAATGCACACATAAGATGCGACTAA [CACACA_site8662] | 8.44
12 | GTTTGTAAATATTTTACACACATATATATATATATA [CACACA_site1075] | 9.32
13 | TTTTTAATTTATTGTGTGCACACAACTATGAGTTTT | 10.3
14 | ATATGATATATATTCGGTACACATATATATAAAGAG [XGTACX_site430] | 6.82
15 | ATTTAAATAATATTCACACACAAAATTATATTTTAA [CACACA_site219] | 6.43
16 | AAGTTTTCTTAAAATTGTACTTTTCAAAAATAATCT [XGTACX_site277] | 5.83
17 | AATATATATATTAGAGTGCACATAATTATTTGCTAA | 8.88
18 | TATGTCAAATATATATGTACACAAATATACTATTAA [XGTACX_site2643] | 6.26
19 | ATAATCACAAATAATTGTACATTTTGTTATATATAT [XGTACX_site7704] | 6.45
20 | AAAAATTTCATATTCACACACAAAAAAAAAAAATAT [CACACA_site1592] | 6.75
21 | TGATATATATATATATATATAACACACGCAAAAAAA [TGCATGCA_negctrl_site240] | 6.95
22 | GATTTAGTTATTTAAACATGCAATTTATATAGAATT [TGCATGCA_site47] | 6.88
23 | CAACATTCGTATATCACACATTTGCATGTTGTCAAT [CACACA_site4470] | 6.66
24 | TATTTATACATACATACACACATATAGATTTATATT [CACACA_site7851] | 6.85
25 | AAAACTTGTCAGAATGGACACACGAATTAAAGGCCT [CACACA_site1215] | 6.37
